Experimental data reported in PubChem BioAssay AID651567 (National Center for Advancing Translational Sciences (NCATS), 2012).
In all, about 1,200 compounds went through this assay and about 10 (0.8%) were called active. Not shown: some 4% with an inconclusive outcome. The call rests on the fitted dose curve; in most records, active means well fitted inhibition curve with a large enough effect; inconclusive means small, poorly fitted or top-dose-only effect; inactive means no such curve, though single readings can be large or run the other way. This is one part of the list.

Test: qHTS Assay to Find Inhibitors of Chronic Active B-Cell Receptor Signaling: Hit Validation in OCI-Ly3 Assay
Details: OCI-Ly3 IkB-luciferase reporter, Chroma-Glo luminescence, 4 h; series mostly up to 46.1 µM; activity change, negative = inhibition: at the top concentration
In short: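 Readout is dual-colour luminescence: IkB-alpha-luciferase fusion (green) against unfused luciferase (red), plus their ratio, scaled between basal cells and 10 uM MG-132. OCI-Ly3 cells, 0.5% FBS IMDM, compound with doxycycline (80ng/ml solution), 4 hrs at 37C; curves fitted and classed.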
On the % scale 0 is the no-effect control and ±100 the full control effect; potency means the concentration at half of the fitted maximal effect.

Activity change, negative = inhibition, inactive:
CCc1ccc(/C=N/NC(=O)c2cc(-c3ccncc3)nc3ccccc23)s1 -7.67%
COc1ccc(CNC(=O)COc2ccc(C(=O)c3ccc(F)cc3)cc2)cc1 -2.85%
C=CCNC(=S)N/N=C/c1ccc(C)s1 -0.257%
Cc1ccc(/C=N/NC(=O)c2n[nH]c3c2CCCC3)cc1 -1.46%
COc1ccc(OC)c(C2CC(=O)Nc3n[nH]c(-c4ccccc4)c32)c1 (configuration not stated) -1.08%
COc1ccc2c(c1)C(C)=CC(C)(C)N2S(=O)(=O)c1ccc(NC(C)=O)cc1 -3.09%
S=C(Nc1ccccc1)Nc1nccs1 76.3%
CCc1c(C)c(C#N)c2nc3ccccc3n2c1Cl -27.7%
COc1ccc(/C=C(\C#N)c2c[nH]c3ccccc23)cc1 -1.65%
COc1ccc(-c2nn(-c3ccccc3)cc2C(=O)NC(=S)NNC(=O)c2ccncc2)cc1 -1.59%
O=C(/C=C/c1ccccc1)c1ccc(NC2=NCCCS2)cc1 -4.98%
CC(=O)Nc1ccc(Oc2cc(C#N)c(C#N)cc2N2CCOCC2)cc1 -0.185%
COc1ccc(-c2[nH]ncc2/C=C(\C#N)C(=O)NC2CC2)cc1 -0.218%
COc1cccc(Nc2sc(C(=O)c3ccc(F)cc3)c(N)c2C(=O)NCc2ccc(C)cc2)c1 -2.94%
C=CCOc1c(Cl)cc(C(=S)N2CCCC2)cc1OCC -1.03%
Cc1ccc(C(=O)Nc2nc(C)c(C(=O)Nc3ccc4c(c3)CCC4)s2)cc1 -3.13%
COc1ccccc1C1CC(=O)Nc2cc3c(cc21)OCCO3 (configuration not stated) -3.86%
O=C(CSc1cccc[n+]1[O-])c1ccc(-c2ccccc2)cc1 0.0764%
Cc1ccc(C#N)c(SCc2ccccc2F)n1 -1.05%
COC(=O)c1[nH]c2ccccc2c1NC(=O)CN1CCN(C/C=C/c2ccccc2)CC1 -1.56%
Cc1csc(N/N=C/c2ccccn2)n1 25%
CCC1=Nc2cc(C(=O)NCc3ccco3)ccc2Sc2ccccc21 -2.12%
CC(=O)N1c2ccc(C)cc2C(c2ccccc2)CC1C (configuration not stated) -2.03%
O=C(/C=C/c1ccccc1Cl)c1cccnc1 -0.735%
COc1cc(/C=C\C(=O)OCn2nnc3ccccc3c2=O)cc(OC)c1OC -4.34%
CCOC(=O)C1=C(N)Oc2ccc3ccccc3c2C1c1ccc(O)c(OC)c1 (configuration not stated) -4.36%
CCC1=Nc2cc(C(=O)NCCCOC)ccc2Sc2ccccc21 -2.48%
Cc1ccc(S(=O)(=O)N(C)C[C@@H]2Oc3ccc(NC(=O)CCC(F)(F)F)cc3CC(=O)N([C@@H](C)CO)C[C@@H]2C)cc1 -2.69%
CCOC(=O)c1cnc(Nc2nc3ccccc3o2)nc1CSC(=S)N1CCCCC1 -1.31%
CCN(CC)c1ccc(Nc2cc3n(c(=O)n2)CCc2cc(OC)c(OC)cc2-3)cc1 -2.64%
COc1ccc(CCn2c(N)cc(=O)[nH]c2=S)cc1OC -0.287%
CCOC(=O)c1c(C=O)c(C)n(Cc2ccccc2)c1C -0.467%
Cc1ccc(C(=O)c2cc([N+](=O)[O-])ccc2N2CCOCC2)c(C)c1 -3.69%
COCCCNC(=O)C[C@H]1C[C@H](C(=O)N2CCCCC2)[C@@]2(C)c3[nH]c4ccc(Cl)cc4c3CCN2C1=O -2.17%
Cc1[nH]n(C(N)=S)c(=O)c1N=Nc1ccc([N+](=O)[O-])cc1Cl 1.77%
CCOc1ccccc1NC(=O)N1CCC(N2CCN(Cc3ccccc3)C(=O)C2=O)CC1 -0.966%
COc1cccc(/C=N/NC(=O)c2[nH]nc3c2CCc2ccccc2-3)c1O -14%
COc1ccc(Nc2cc(C)nc(-n3nc(C)cc3C)n2)cc1 -2.17%
CCCOc1ccc(Cn2ccnc2)cc1[N+](=O)[O-] -0.415%
C=CCNC(=S)N/N=C/c1ccc(C(C)(C)C)cc1 -3.06%
Cc1ccc(NC(=S)NNC(C)(C)C)cc1 -0.754%
COc1cc2c(cc1OC)C(c1cc(C)ccc1C)CC(=O)N2 (configuration not stated) -0.742%
N#CC(C(=S)Nc1ccccc1)c1nc2ccccc2[nH]1 (configuration not stated) -7.01%
CC1=Nc2cc(C(=O)NCCCOC(C)C)ccc2Sc2ccc(C)cc21 -2.02%
COc1ccc(/C=N/NC(=O)c2[nH]c3ccc(Br)cc3c2-c2ccccc2)c(C(=O)O)c1OC -1.95%
CCCCC(=O)O[C@]1(C(=O)CO)CC[C@H]2[C@@H]3CCC4=CC(=O)CC[C@]4(C)[C@H]3[C@@H](O)C[C@@]21C -1.97%
Cc1cccc(OCCCC(=O)NNC(=O)c2cccc(N(C)C)c2)c1 -0.0947%
O=C(Cc1ccc(-c2ccccc2)cc1)NCc1ccccc1 -2.19%
Cc1nc2c(C(F)(F)F)cccc2c2c1CCS2 -1.14%
COc1ccc(/C=C/c2ccncc2)cc1OC 0.0427%
COc1cccc(/C=N/Nc2nc(Nc3ccccc3)nc(-n3nc(C)cc3C)n2)c1O -14.3%
CC(C)(C)NNC(=S)Nc1cccc(F)c1 0.0382%
COc1ccccc1NC(=O)COc1ccc(-c2nn(C)c(=O)c3ccccc23)cc1 -2.69%
Cc1ccc(-c2ccccc2NC(=O)CS(=O)CC(=O)Nc2ccc(C)c(Cl)c2)o1 (configuration not stated) -1.92%
Cc1ccc(-n2cc(CNCCc3ncc(C)[nH]3)c(-c3ccc(F)cc3)n2)cc1 0.502%
COc1ccc(/C(C)=N/Nc2nc3ccccc3nc2C)cc1OC -4.17%
O=C(COc1ccccc1-c1ccccc1)N/N=C/c1ccc2ccccc2c1 -1.67%
CCOc1ccccc1/C=N/Nc1nc2c(N)ncnc2n1[C@H]1O[C@@H](CO)[C@H](O)[C@@H]1O 0.035%
O=C(CN1CCCc2ccccc21)N/N=C/c1ccccc1O -0.607%
Cc1cc(C)c2nc(SCC(=O)N3CC(=O)Nc4ccccc43)c(C#N)cc2c1 -4%
COc1cc(OC)cc(C(=O)N/N=C(\C)CC(=O)Nc2ccccn2)c1 -3.7%
CC[C@]12c3[nH]c4cc(CCC(=O)N(C)C)ccc4c3CCN1C(=O)[C@@H](CC(=O)NC/C=C(\C)CCC=C(C)C)C[C@@H]2C(=O)N1CCN(C(=O)c2ccco2)CC1 -15.4%
COc1ccc(NCC(=O)n2c(C)c(C)c3ccccc32)cc1 -1.51%
COc1ccccc1-n1cnc2cc(NCc3cccs3)ccc21 40.4%
Cc1cc(C)nc(SCc2ccc(C(=O)N/N=C/c3cccnc3)cc2)n1 -0.502%
COc1ccc(S(=O)(=O)N2CCCCC2)cc1NC(=O)c1ccc(OC)c(OC)c1 -1.06%

Potency, active:
COc1cc(/C=C/c2ccc3cccc(O)c3n2)cc(Br)c1OC 10.3 µM
